The full ranking holds about 5,400 compounds; the median of “IFI” is about 2, and the highest 2% start at about 22. Some of the results follow.
experiment: NOVARTIS: Inhibition Frequency Index (IFI) - the number of HTS assays where a compound showed > 50% inhibition/induction, expressed as a percentage of the number of assays in which the compound was tested.; format: functional

SMILES | IFI [%]
CC(C)C(=O)NCCCCNc1ccnc2cc(Cl)ccc12 | 0.935
CCCc1ccc(OCc2nc(-c3ccc(NC(=O)c4cccs4)cc3)no2)cc1 | 0
Cc1nc(Cl)cc(N2CCc3c(nc(N4CC(C)OC(C)C4)[nH]c3=O)C2)n1 (configuration not stated) | 0
CCC(CO)NCC(O)Cn1c2ccc(Br)cc2c2cc(Br)ccc21 (configuration not stated) | 4.65
CCn1c2ccccc2[n+]2c(C)cc(C)nc12 | 7.14
CCOC(=O)c1ccc(NC(=O)c2ccc(S(=O)(=O)N3CC(C)CC(C)C3)cc2)cc1 (configuration not stated) | 0
N#Cc1ccc(N2CCN(C(=O)c3ccc(F)cc3Cl)CC2)cc1 | 4.25
Cc1ccc(C)c(NC2=C(c3ccc(C(F)(F)F)cc3)C(=O)c3ccccc32)c1 | 0
CCCCNC(=O)N1CCN(C(=O)C(Cc2c[nH]c3ccccc23)NC(=O)Nc2cccc(C#N)c2)CC1C (configuration not stated) | 2.78
CCN1CCN(C2CCN(Cc3cc4ccc(F)cc4n(CCSc4ccccc4)c3=O)CC2)CC1 | 3
Cc1ccn2c(NC(C)(C)CC(C)(C)C)c(-c3ccccc3OC(=O)C(C)(C)CCl)nc2c1 | 3.16
COc1ccc(C2CC(=O)C3=C(C2)NC(C)=C(C(=O)OC2CCCC2)C3c2ccc(Cl)cc2)cc1OC (configuration not stated) | 3.57
Clc1ccc(CCNC2CCN(CCc3ccccc3)CC2)cc1 | 1.57
Cc1cc(C)cc(OCC(=O)N2N=C(C(C)C)CC2(O)C(F)(F)F)c1 (configuration not stated) | 0
O=C(Nc1cccc(Oc2ccccc2)c1)NC(CN1CCCC1)c1ccccc1 (configuration not stated) | 7.04
Cc1nc2ccccn2c1C1(O)C(=O)Nc2c(Cl)cc(Cl)cc21 (configuration not stated) | 9.38
CCC(=O)N1CCc2cc(Br)cc(S(=O)(=O)N3CCCCC3CC)c21 (configuration not stated) | 0
CCOC(=O)N1CCN(C(=O)c2ccc(N3CC4CC(C3)c3cccc(=O)n3C4)c(NS(=O)(=O)c3ccc4c(c3)OCCO4)c2)CC1 (configuration not stated) | 1.16
CCN1CCN(CC(O)COc2ccc(OC)cc2)CC1 (configuration not stated) | 0
Cc1cc(Nc2ccc(Br)c(C)c2)n2nc(C)nc2n1 | 0
O=C(Nc1ccc(Br)cc1C(=O)c1ccccc1)c1cc2nc(-c3cccs3)cc(C(F)(F)F)n2n1 | 0
COc1cccc(CN2CCN(C(c3ccccc3)c3ccccc3)CC2)c1O | 4.76
COc1c(C=NNc2nc(Nc3ccc([N+](=O)[O-])cc3)nc(N3CCN(C)CC3)n2)cccc1[N+](=O)[O-] | 6.49
COc1ccc(-n2c(CNc3cc(C(F)(F)F)ccc3Cl)nnc2SCc2ccccc2Cl)cc1 | 1.72
c1ccc(C[C@H]2CN(c3ccccc3)CCN2CCNCCOc2ccccc2)cc1 | 1.24

SMILES | IFI [%]
Brc1ccc(Nc2nc(NCc3ccco3)c3ccccc3n2)cc1 | 11.1
O=C(Nc1ccc(-c2ccc(Cl)cc2)cc1)c1cccs1 | 5.41
CCCOC(=O)C1=C(C)NC2=C(C(=O)CC(c3ccc(OC)cc3)C2)C1c1ccccc1F (configuration not stated) | 3.53
Cc1ccc(-n2cc(C(=O)N(C)Cc3ccccc3)c3ccccc3c2=O)cc1C | 0
CC(C)(C)C1=NN(CC(=O)Nc2ccc3c(c2)OCO3)C(=O)c2cc3ccccc3n2C1 | 0
Cc1ccc(CN2CCC(O)(c3ccc4oc(C(=O)NCCc5cccc(F)c5)cc4c3)CC2)cc1 | 3.03
COc1ccc(C2N=C(N)N=C(N)N2c2ccc(Cl)cc2)cc1OC (configuration not stated) | 1.43
CCCCCCN(C(=O)c1cccc(C(F)(F)F)c1)C(CC)c1nc2ccccc2c(=O)n1-c1ccccc1OC (configuration not stated) | 0.917
CCCN(CC(=O)Nc1cc(C(C)(C)C)nn1-c1cccc(C)c1)C(=O)c1cccc([N+](=O)[O-])c1 | 3.6
O=C(NCCC1=CCCCC1)c1ccc2c(=O)n(-c3ccccc3)c(SCc3nc4ccccc4[nH]3)nc2c1 | 1.19
NC(=S)NN=Cc1cc([N+](=O)[O-])ccc1O | 0
CC[C@@H](C(=O)[C@@H](C)C(O)[C@H](C)CCc1ccc(C)c(O)c1C(=O)O)C1O[C@](CC)(C2CC[C@](O)(CC)[C@H](C)O2)C[C@@H]1C (some centres not stated) | 9.84
CCOC(=O)c1sc(NC(=O)C(C)Sc2nnc(CNC(=O)c3ccc(OC)cc3)n2-c2ccccc2OC)c(C(=O)OCC)c1C (configuration not stated) | 1.35
CCCCCCc1ccc(C(=O)N(CC(=O)Nc2cc(C(C)(C)C)nn2-c2ccc(Cl)c(Cl)c2)C(C)C)cc1 | 1.91
CC(CN1CCC(n2cc(C(=O)N3CCCC3)nn2)CC1)c1ccccc1 (configuration not stated) | 0.885
COc1cc(CNc2cc(OCCOc3ccc(Cl)cc3)cc(C(=O)NC3CCN(Cc4ccccc4)CC3)c2)ccc1OCc1ccccc1 | 7.14
CC(=O)N(/C=C1/Sc2ccccc2C1=O)c1ccc(C)cc1 | 7.69
CCCCC(=O)NC(c1ccccc1)c1ccc2cccnc2c1O (configuration not stated) | 12.5
CCn1c(SCC(=O)Nc2cccc(C)c2)nnc1-c1ccccc1 | 3.67
Cc1nc(N2CCN(c3ccccn3)CC2)c2c(C)c(C(=O)Nc3c(F)cccc3F)sc2n1 | 2.35
Cc1ccc(N2C(N)=NC(N)=NC2(C)C)c(C)c1 | 1.51
Cc1ccc2oc(=O)c3cnn(CC(=O)Nc4ccc(F)cc4Cl)c3c2c1 | 0
Cc1noc(C)c1S(=O)(=O)N(Cc1ccccc1)CC(O)CN1CCC(NC(=O)Cc2cccs2)C1 (configuration not stated) | 0.962
CC1=C(C(=O)OCC(C)C)C(c2ccc(OCc3ccccc3)cc2)C2=C(CC(c3ccccc3)CC2=O)N1 (configuration not stated) | 3.53
CCc1ccc(C(C)=NNc2nc(O)cc(-c3ccccc3)n2)cc1 | 0

SMILES | IFI [%]
CC(C)CNC(=O)c1cnc(NCCC2CCCN2C)nc1NCC1CCCCC1 (configuration not stated) | 2.88
CC(=O)N(C)C1=C(N2CCCC2)C(=O)c2ccccc2C1=O | 0
COc1ccc2c(c1)C(C)(CC#N)C(=O)N2C (configuration not stated) | 1.51
OC(c1cc(C(F)(F)F)nc2c(C(F)(F)F)cccc12)C1CCCCN1 (configuration not stated) | 2.42
CC1CN=C(c2ccc(NC(=O)c3ccc(C(=O)Nc4ccc(C5=NCC(C)N5)cc4)c(N)c3)cc2)N1 (configuration not stated) | 3.57
CC(=O)N1c2ccccc2C(C)(c2ccc(Br)cc2)CC1(C)C (configuration not stated) | 1.61
Nc1cc(-c2cccs2)n[nH]1 | 0
CC(C)CCN(CCC(C)C)CC(O)Cn1c2ccc(Cl)cc2c2cc(Cl)ccc21 (configuration not stated) | 3.51
Nc1c(C(=O)c2ccc(Br)cc2)sc2nc(-c3cccnc3)ccc12 | 0
CC1=C(C(=O)OC(C)C)C(c2ccccc2Cl)C2=C(CC(c3ccccc3)CC2=O)N1 (configuration not stated) | 2.35
COc1ccc(NC(=O)CCCCCn2c(SCC(=O)NCC3CCCO3)nc3ccsc3c2=O)cc1 (configuration not stated) | 0
CCOC(=O)c1[nH]c(C)c(CNc2cccc(OC)c2)c1C | 0
O=C(Nc1ccc(C2=NCCCN2)cc1)c1ccc(C(=O)Nc2ccc(C3=NCCCN3)cc2)cc1 | 5.26
Cc1ccc(CN2C(=O)C(O)(CC(=O)c3ccccc3)c3ccccc32)cc1 (configuration not stated) | 1.16
COc1ccc(CCN2C(=S)NC3c4cccc(OC)c4OC2(C)C3C(=O)Nc2ccc(C)cc2C)cc1OC (configuration not stated) | 0
O=C(Cc1ccccc1)NCc1ccc(Nc2c(-c3cccnc3)nc3ccccn23)cc1 | 4.17
FC(F)(F)c1cccc(Nc2nc3nonc3nc2Nc2ccc(Br)cc2)c1 | 22.2
COc1cccc(C2CC3(CC(C)(C)NC(=S)N3)Oc3cc(OC(C)=O)c(Cl)cc32)c1 (configuration not stated) | 3.12
CCCOc1ccc(Cc2c(C)nc3ccc(Br)cc3c2O)cc1 | 0
COC(=O)c1cn2c(=O)c3ccccc3nc2c2ccccc12 | 0
CCCNC(=O)c1cc(NC(=O)c2cc(C(F)(F)F)cc(C(F)(F)F)c2)ccc1N1CCCCC1 | 3.67
COc1cc(C(=O)Nc2cnc3ccccc3c2)ccc1-n1cnnn1 | 5.56
CCC(=O)N(C)CCCNc1ccnc2cc(Cl)ccc12 | 3.74
CC(C)(C)NC(=O)C(c1ccc(F)cc1)N(CCCN1CCOCC1)C(=O)c1ccc(-c2ccccc2)[nH]1 (configuration not stated) | 3.16
N#C/C(=C\NC1CCN(Cc2ccccc2)CC1)C(=O)c1cccs1 | 2.5

SMILES | IFI [%]
COc1ccc(Cn2nnnc2CN2CCc3ccccc3C2)cc1 | 1.51
CC(C)(C)C(=O)Nc1ccc(C23CC4CC(CC(c5ccccc5)(C4)C2)C3)cc1 | 0
COC(=O)C1=C(C)NC2=C(C(=O)CC(c3ccc(OC)cc3)C2)C1c1ccccc1F (configuration not stated) | 2.33
CC(Oc1cccc(Cl)c1)C(=O)N1CCc2ccccc21 (configuration not stated) | 0
Cc1ccc(S(=O)(=O)NC(=O)Nc2ccc(N(C)C)cc2)cc1 | 3.2
CC(C)Cc1ccc(/C=C/C(=O)NC2CC2)cc1 | 0
CCN1C(=Cc2sc3ccccc3[n+]2C)C=Cc2cccc(C)c21 | 23.1
O=C1Cc2c([nH]c3ccc(OCc4ccccc4)cc23)C2CC=CCC12 (configuration not stated) | 0
CC(=O)N(C1=C(N2CCCCCC2)C(=O)c2ccccc2C1=O)C1CCCCC1 | 7.14
O=C(NCCN1CCOCC1)c1ccc(Cl)cc1 | 0.599
COc1ccc(Nc2nc(N3CCCC3)c3ccccc3n2)cc1 | 0
COc1ccccc1-n1c(=O)c2c3c(sc2n2c(C)nnc12)CCC3 | 0
COc1ccc(-c2cc(C(F)(F)F)n3ncc(C(=O)NCc4ccccc4)c3n2)cc1 | 2.17
O=C(NCCC(c1ccccc1)c1ccccc1)c1cccc([N+](=O)[O-])c1 | 0
COc1ccc(C(=O)Nc2ccc3nsnc3c2)cc1OC | 4.22
CC1CC(C)CN(c2ccc([N+](=O)[O-])cc2-c2nnn[nH]2)C1 (configuration not stated) | 0
O=C(NCc1ccc2c(c1)OCO2)C1CNCC1c1ccc(C(F)(F)F)cc1 (configuration not stated) | 1.37
COc1cccc(Cn2c(C)nc3cc(NC(=O)Nc4ccccc4)c(C)nc32)c1 | 0
N=c1n(CCN2CCCCC2)c2ccccc2n1CC(O)c1ccc(Cl)c(Cl)c1 (configuration not stated) | 9.52
CCOC(=O)c1ccc(OCC2c3cc(OC)c(OC)cc3CCN2C(=O)Nc2ccc(Cl)cc2)cc1 (configuration not stated) | 4.84
c1ccc(CN2CCC(NCc3c[nH]c4ccccc34)CC2)cc1 | 0
CC(C)(C)C(=O)Cn1ccc(=N)c2ccccc21 | 0
